Changes are numbered by the printed parent chain. Names and notes keep the numbering of the source. Results are given in words; binding and its absence hold for the method and conditions named. Binding seen in cells or lysates may run through a third protein. Some binding calls cover weakened binding; strength is not graded here. Where a sequence is shown, tags or fusion partners need not be part of it.
B1: Myc-tagged full-length Gab1 (wild type) (protein, UniProt Q9QYY0 1-695)
chain: MSGGEVVCSGWLRKSPPEKKLKRYAWKRRWFVLRSGRLTGDPDVLEYYKNDHAKKPIRIIDLNLCQQVDAGLTFNKKEFENSYIFDINTIDRIFYLVADSEEDMNKWVRCICDICGFNPTEEDPVKPLTGSSQAPVDSPFAISTAPASSQMEASSVALPPPYQVISLPPHPDTLGLQDDPQDYLLLINCQSKKPEPNRTLFDSAKPTFSETDCNDNVPSHQTPASSQSKHGMNGFFQQQMMYDCPPSRLTSVSGESSLYNLPRSYSHDVLPKESPSSTEADGELYTFNTPSGTAGVETQMRHVSISYDIPPTPGNTYQIPRTFPESTLGQSSKLDTIPDIPPPRPPKPHPTHDRSPVETCGVPRTASDTDSSYCIPPPAGMTPSRSNTISTVDLNKLRKDASSQDCYDIPRTFPSDRSSSLEGFHSQYKIKSVLTAGGVSGEELDENYVPMNPNSPPRQHSGSFTEPIQEPNYVPMTPGTFDFSSFGMQVPPPAHMGFRSSPKTPPRRPVPVADCEPPPVDRNLKPDRKVKPAPLDIKPLSEWEELQAPVRSPITRSFARDSSRFPMSPRPDSVHSTTSSSDSHDSEENYVPMNPNLSGEDPNLFASNSLDGGSSPMNKPKGDKQVEYLDLDLDSGKSTPPRKQKSSGSGSSMADERVDYVVVDQQKTLALKSTREAWTDGRQSTESETPTKNVK
B2: Myc-tagged Gab1-Y473F (protein, UniProt Q9QYY0 1-695)
chain: B1 chain with Y473F
B3: Myc-tagged Gab1-Y590F (protein, UniProt Q9QYY0 1-695)
chain: B1 chain with Y590F
B4: Myc-tagged Gab1-Y628F (protein, UniProt Q9QYY0 1-695)
chain: B1 chain with Y628F
B5: Myc-tagged Gab1-Y660F (protein, UniProt Q9QYY0 1-695)
chain: B1 chain with Y660F
B6: Myc-Gab1 (Y47F) (protein, UniProt Q9QYY0 1-695)
chain: B1 chain with Y47F
B7: Myc-Gab1 (K49T) (protein, UniProt Q9QYY0 1-695)
chain: B1 chain with K49T
B8: Myc-Gab1 (K49A) (protein, UniProt Q9QYY0 1-695)
chain: B1 chain with K49A
B9: Myc-Gab1 (ΔEYYK), Gab1 without its first 49 amino acids (domain or fragment, UniProt Q9QYY0 50-695)
chain: NDHAKKPIRIIDLNLCQQVDAGLTFNKKEFENSYIFDINTIDRIFYLVADSEEDMNKWVRCICDICGFNPTEEDPVKPLTGSSQAPVDSPFAISTAPASSQMEASSVALPPPYQVISLPPHPDTLGLQDDPQDYLLLINCQSKKPEPNRTLFDSAKPTFSETDCNDNVPSHQTPASSQSKHGMNGFFQQQMMYDCPPSRLTSVSGESSLYNLPRSYSHDVLPKESPSSTEADGELYTFNTPSGTAGVETQMRHVSISYDIPPTPGNTYQIPRTFPESTLGQSSKLDTIPDIPPPRPPKPHPTHDRSPVETCGVPRTASDTDSSYCIPPPAGMTPSRSNTISTVDLNKLRKDASSQDCYDIPRTFPSDRSSSLEGFHSQYKIKSVLTAGGVSGEELDENYVPMNPNSPPRQHSGSFTEPIQEPNYVPMTPGTFDFSSFGMQVPPPAHMGFRSSPKTPPRRPVPVADCEPPPVDRNLKPDRKVKPAPLDIKPLSEWEELQAPVRSPITRSFARDSSRFPMSPRPDSVHSTTSSSDSHDSEENYVPMNPNLSGEDPNLFASNSLDGGSSPMNKPKGDKQVEYLDLDLDSGKSTPPRKQKSSGSGSSMADERVDYVVVDQQKTLALKSTREAWTDGRQSTESETPTKNVK
B10: Truncated Myc-Gab1 (1–280 amino acids) (domain or fragment, UniProt Q9QYY0 1-280)
chain: MSGGEVVCSGWLRKSPPEKKLKRYAWKRRWFVLRSGRLTGDPDVLEYYKNDHAKKPIRIIDLNLCQQVDAGLTFNKKEFENSYIFDINTIDRIFYLVADSEEDMNKWVRCICDICGFNPTEEDPVKPLTGSSQAPVDSPFAISTAPASSQMEASSVALPPPYQVISLPPHPDTLGLQDDPQDYLLLINCQSKKPEPNRTLFDSAKPTFSETDCNDNVPSHQTPASSQSKHGMNGFFQQQMMYDCPPSRLTSVSGESSLYNLPRSYSHDVLPKESPSSTEA
B11: Gab1 expressed from pCDNA3-Gab1 in HEK-293T cells (no tag named) (protein, UniProt Q9QYY0 1-695)
chain: B1 chain
B12: Myc-tagged Gab1-Y285F (protein, UniProt Q9QYY0 1-695)
chain: B1 chain with Y285F
B13: Myc-tagged Gab1-Y373F (protein, UniProt Q9QYY0 1-695)
chain: B1 chain with Y373F
B14: Myc-tagged Gab1-Y407F (protein, UniProt Q9QYY0 1-695)
chain: B1 chain with Y407F
B15: Myc-tagged Gab1-Y448F (protein, UniProt Q9QYY0 1-695)
chain: B1 chain with Y448F

target: T1, GST-PTP1B-D181A (substrate-trapping mutant of PTP1B, GST fusion protein) (mouse) (UniProt P35821); assay: pull-down; as the substrate trapping pull-down, but HEK-293T cells were not treated with pervanadate; immunoblot with anti-Myc and anti-pGab1; only the target purified
T1 sequence: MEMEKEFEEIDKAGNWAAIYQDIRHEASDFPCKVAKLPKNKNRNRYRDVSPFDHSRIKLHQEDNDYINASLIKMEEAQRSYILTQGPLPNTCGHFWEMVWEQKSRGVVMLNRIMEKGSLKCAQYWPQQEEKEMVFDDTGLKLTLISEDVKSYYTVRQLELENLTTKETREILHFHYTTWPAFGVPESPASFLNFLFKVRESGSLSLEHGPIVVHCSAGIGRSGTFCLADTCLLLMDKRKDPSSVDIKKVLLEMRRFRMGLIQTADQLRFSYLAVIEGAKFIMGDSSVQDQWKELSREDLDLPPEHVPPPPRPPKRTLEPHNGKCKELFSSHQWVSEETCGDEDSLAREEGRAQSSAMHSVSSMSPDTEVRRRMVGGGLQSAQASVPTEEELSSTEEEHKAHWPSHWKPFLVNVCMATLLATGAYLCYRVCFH

Q: B1 was tested. Which binding did it give?
A: no binding (condition: cells not treated with pervanadate)

target: T1, GST-PTP1B-D181A (substrate-trapping mutant of PTP1B, GST fusion protein) (mouse); assay: condition: only lysates treated with wild type PTP1B before the pull-down; pull-down; as the substrate trapping pull-down, but lysates of pervanadate-treated HEK-293T cells were incubated with wild type GST-PTP1B before the pull-down; immunoblot with anti-Myc; only the target purified

Q: B1 was tested. Which binding did it give?
A: no binding

target: T1, GST-PTP1B-D181A (substrate-trapping mutant of PTP1B, GST fusion protein) (mouse); assay: pull-down; substrate trapping: GST-PTP1B-WT or GST-PTP1B-D181A bound on glutathione beads; lysates of retinal ex vivo explants or HEK-293T cells treated with 1 mM pervanadate for 30 min; 2 h at 4°C in substrate-trapping buffer; immunoblot with anti-Gab1 or anti-Myc; only the target purified

Q: Which binding does the source give for B2 here?
A: binds

Q: Which binding does the source give for B3 here?
A: binds

Q: Which binding does the source give for B4 here?
A: binds

Q: For B5, which binding is on record?
A: binds

Q: For B6, which binding is on record?
A: binds

Q: Which binding does the source give for B7 here?
A: binds weakly

Q: B8 was tested. Which binding did it give?
A: binds weakly

Q: With B9 as the binder, how does the binding read?
A: binds

Q: For B10, which binding is on record?
A: binds

Q: For B11, which binding is on record?
A: binds

Q: Which binding does the source give for B1 here?
A: binds

Q: For B12, which binding is on record?
A: binds

Q: For B13, which binding is on record?
A: binds

Q: How did the binding turn out when B14 was run?
A: binds

Q: With B15 as the binder, how does the binding read?
A: binds

target: T2, GST-PTP1B-WT (wild type protein tyrosine phosphatase-1B, GST fusion protein) (mouse) (UniProt P35821); assay: as above
T2 sequence: T1 sequence with A181D

Q: B11 was tested. Which binding did it give?
A: no binding

Q: How did the binding turn out when B1 was run?
A: no binding
